# The supplement of paper PMC8728848
# The list shows a part of the results.
# B1: OVGAL11 (Ovis aries), AAF64320 (protein)
# chain: MDSLPNPYLQSVSLTVCYMVKIKANLLSAFGKNPELQVDFGTGTGQGGNIPFRFWYCDGMVVMNTFTDGSWQKEEKVLTDAFVPGQPFELQFLVLEKEYQVFVKNKPICQFAHRLPLQSVKMLDVRGDIVLTSVDTL
# Legend:
# Assay in all cases: glycan array binding signal (z-score within array); higher = stronger binding
# Details in all cases: glycan notation: IUPAC condensed, linker removed
# [1] = target: Gal(b1-4)GlcNAc(b1-3)Gal(b1-3)GalNAc
# Summary of the method: (§1)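 From the Consortium for Functional Glycomics database, 3228 arrays were curated, keeping only those whose protein sequence was available. Binding is given as a within-array Z-score averaged across arrays sharing a protein sequence and across linkers. Negative Z-scores can be read as non-binding.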
# [2] = target: Gal(b1-4)GlcNAc(b1-3)Gal(b1-3)GlcNAc
# Summary of the method: as §1
# [3] = target: Gal(b1-4)GlcNAc(b1-3)Gal(b1-4)Glc
# Summary of the method: as §1
# [4] = target: Gal(b1-4)GlcNAc(b1-3)Gal(b1-4)GlcNAc
# Summary of the method: as §1
# [5] = target: Gal(b1-4)GlcNAc(b1-3)Gal(b1-4)GlcNAc(b1-2)Man(a1-3)[Gal(b1-4)GlcNAc(b1-3)Gal(b1-4)GlcNAc(b1-2)Man(a1-6)]Man(b1-4)GlcNAc(b1-4)GlcNAc
# Summary of the method: as §1
# [6] = target: Gal(b1-4)GlcNAc(b1-3)Gal(b1-4)GlcNAc(b1-2)Man(a1-3)[Gal(b1-4)GlcNAc(b1-3)Gal(b1-4)GlcNAc(b1-2)Man(a1-6)]Man(b1-4)GlcNAc(b1-4)[Fuc(a1-6)]GlcNAc
# Summary of the method: as §1
# [7] = target: Gal(b1-4)GlcNAc(b1-3)Gal(b1-4)GlcNAc(b1-2)[Gal(b1-4)GlcNAc(b1-3)Gal(b1-4)GlcNAc(b1-6)]Man(a1-6)[Gal(b1-4)GlcNAc(b1-3)Gal(b1-4)GlcNAc(b1-2)Man(a1-3)]Man(b1-4)GlcNAc(b1-4)GlcNAc
# Summary of the method: as §1
# [8] = target: Gal(b1-4)GlcNAc(b1-3)Gal(b1-4)GlcNAc(b1-2)[Gal(b1-4)GlcNAc(b1-3)Gal(b1-4)GlcNAc(b1-6)]Man(a1-6)[Gal(b1-4)GlcNAc(b1-3)Gal(b1-4)GlcNAc(b1-2)Man(a1-3)]Man(b1-4)GlcNAc(b1-4)[Fuc(a1-6)]GlcNAc
# Summary of the method: as §1
# [9] = target: Gal(b1-4)GlcNAc(b1-3)Gal(b1-4)GlcNAc(b1-3)Gal(b1-4)GlcNAc
# Summary of the method: as §1
# [10] = target: Gal(b1-4)GlcNAc(b1-3)Gal(b1-4)GlcNAc(b1-3)Gal(b1-4)GlcNAc(b1-2)Man(a1-3)[Gal(b1-4)GlcNAc(b1-3)Gal(b1-4)GlcNAc(b1-3)Gal(b1-4)GlcNAc(b1-2)Man(a1-6)]Man(b1-4)GlcNAc(b1-4)GlcNAc
# Summary of the method: as §1
# [11] = target: Gal(b1-4)GlcNAc(b1-3)Gal(b1-4)GlcNAc(b1-3)Gal(b1-4)GlcNAc(b1-2)Man(a1-3)[Gal(b1-4)GlcNAc(b1-3)Gal(b1-4)GlcNAc(b1-3)Gal(b1-4)GlcNAc(b1-2)Man(a1-6)]Man(b1-4)GlcNAc(b1-4)[Fuc(a1-6)]GlcNAc
# Summary of the method: as §1
# [12] = target: Gal(b1-4)GlcNAc(b1-3)Gal(b1-4)GlcNAc(b1-3)Gal(b1-4)GlcNAc(b1-2)[Gal(b1-4)GlcNAc(b1-3)Gal(b1-4)GlcNAc(b1-3)Gal(b1-4)GlcNAc(b1-6)]Man(a1-6)[Gal(b1-4)GlcNAc(b1-3)Gal(b1-4)GlcNAc(b1-3)Gal(b1-4)GlcNAc(b1-2)Man(a1-3)]Man(b1-4)GlcNAc(b1-4)[Fuc(a1-6)]GlcNAc
# Summary of the method: as §1
# [13] = target: Gal(b1-4)GlcNAc(b1-3)Gal(b1-4)GlcNAc(b1-3)Gal(b1-4)GlcNAc(b1-3)Gal(b1-4)GlcNAc(b1-2)Man(a1-3)[Gal(b1-4)GlcNAc(b1-3)Gal(b1-4)GlcNAc(b1-3)Gal(b1-4)GlcNAc(b1-3)Gal(b1-4)GlcNAc(b1-2)Man(a1-6)]Man(b1-4)GlcNAc(b1-4)GlcNAc
# Summary of the method: as §1
# [14] = target: Gal(b1-4)GlcNAc(b1-3)Gal(b1-4)GlcNAc(b1-3)Gal(b1-4)GlcNAc(b1-3)Gal(b1-4)GlcNAc(b1-2)Man(a1-3)[Gal(b1-4)GlcNAc(b1-3)Gal(b1-4)GlcNAc(b1-3)Gal(b1-4)GlcNAc(b1-3)Gal(b1-4)GlcNAc(b1-2)Man(a1-6)]Man(b1-4)GlcNAc(b1-4)[Fuc(a1-6)]GlcNAc
# Summary of the method: as §1
# [15] = target: Gal(b1-4)GlcNAc(b1-3)Gal(b1-4)GlcNAc(b1-3)Gal(b1-4)GlcNAc(b1-3)Gal(b1-4)GlcNAc(b1-2)[Gal(b1-4)GlcNAc(b1-3)Gal(b1-4)GlcNAc(b1-3)Gal(b1-4)GlcNAc(b1-3)Gal(b1-4)GlcNAc(b1-6)]Man(a1-6)[Gal(b1-4)GlcNAc(b1-3)Gal(b1-4)GlcNAc(b1-3)Gal(b1-4)GlcNAc(b1-3)Gal(b1-4)GlcNAc(b1-2)Man(a1-3)]Man(b1-4)GlcNAc(b1-4)[Fuc(a1-6)]GlcNAc
# Summary of the method: as §1
# [16] = target: Gal(b1-4)GlcNAc(b1-3)Gal(b1-4)GlcNAc(b1-3)Gal(b1-4)GlcNAc(b1-3)Gal(b1-4)GlcNAc(b1-3)Gal(b1-4)GlcNAc(b1-2)Man(a1-3)[Gal(b1-4)GlcNAc(b1-3)Gal(b1-4)GlcNAc(b1-3)Gal(b1-4)GlcNAc(b1-3)Gal(b1-4)GlcNAc(b1-3)Gal(b1-4)GlcNAc(b1-2)Man(a1-6)]Man(b1-4)GlcNAc(b1-4)GlcNAc
# Summary of the method: as §1
# [17] = target: Gal(b1-4)GlcNAc(b1-3)Gal(b1-4)GlcNAc(b1-3)Gal(b1-4)GlcNAc(b1-3)Gal(b1-4)GlcNAc(b1-3)Gal(b1-4)GlcNAc(b1-2)Man(a1-3)[Gal(b1-4)GlcNAc(b1-3)Gal(b1-4)GlcNAc(b1-3)Gal(b1-4)GlcNAc(b1-3)Gal(b1-4)GlcNAc(b1-3)Gal(b1-4)GlcNAc(b1-2)Man(a1-6)]Man(b1-4)GlcNAc(b1-4)[Fuc(a1-6)]GlcNAc
# Summary of the method: as §1
# [18] = target: Gal(b1-4)GlcNAc(b1-3)Gal(b1-4)GlcNAc(b1-3)Gal(b1-4)GlcNAc(b1-3)Gal(b1-4)GlcNAc(b1-3)Gal(b1-4)GlcNAc(b1-2)[Gal(b1-4)GlcNAc(b1-3)Gal(b1-4)GlcNAc(b1-3)Gal(b1-4)GlcNAc(b1-3)Gal(b1-4)GlcNAc(b1-3)Gal(b1-4)GlcNAc(b1-6)]Man(a1-6)[Gal(b1-4)GlcNAc(b1-3)Gal(b1-4)GlcNAc(b1-3)Gal(b1-4)GlcNAc(b1-3)Gal(b1-4)GlcNAc(b1-3)Gal(b1-4)GlcNAc(b1-2)Man(a1-3)]Man(b1-4)GlcNAc(b1-4)[Fuc(a1-6)]GlcNAc
# Summary of the method: as §1
# [19] = target: Gal(b1-4)GlcNAc(b1-3)Gal(b1-4)GlcNAc(b1-3)Gal(b1-4)GlcNAc(b1-3)Gal(b1-4)GlcNAc(b1-3)Gal(b1-4)GlcNAc(b1-3)Gal(b1-4)GlcNAc(b1-2)Man(a1-3)[Gal(b1-4)GlcNAc(b1-3)Gal(b1-4)GlcNAc(b1-3)Gal(b1-4)GlcNAc(b1-3)Gal(b1-4)GlcNAc(b1-3)Gal(b1-4)GlcNAc(b1-3)Gal(b1-4)GlcNAc(b1-2)Man(a1-6)]Man(b1-4)GlcNAc(b1-4)GlcNAc
# Summary of the method: as §1
# [20] = target: Gal(b1-4)GlcNAc(b1-3)Gal(b1-4)GlcNAc(b1-3)GalNAc
# Summary of the method: as §1
# [21] = target: Gal(b1-4)GlcNAc(b1-3)Gal(b1-4)GlcNAc(b1-3)[Gal(b1-4)GlcNAc(b1-3)Gal(b1-4)GlcNAc(b1-6)]GalNAc
# Summary of the method: as §1
# [22] = target: Gal(b1-4)GlcNAc(b1-3)Gal(b1-4)GlcNAc(b1-6)[Gal(b1-3)]GalNAc
# Summary of the method: as §1
# [23] = target: Gal(b1-4)GlcNAc(b1-3)Gal(b1-4)[Fuc(a1-3)]GlcNAc(b1-3)Gal(b1-4)[Fuc(a1-3)]GlcNAc
# Summary of the method: as §1
# [24] = target: Gal(b1-4)GlcNAc(b1-3)GalNAc
# Summary of the method: as §1
# [25] = target: Gal(b1-4)GlcNAc(b1-3)[Fuc(a1-3)GlcNAc(b1-6)]Gal(b1-4)Glc
# Summary of the method: as §1
# [26] = target: Gal(b1-4)GlcNAc(b1-3)[Gal(b1-4)GlcNAc(b1-6)]Gal(b1-4)GlcNAc
# Summary of the method: as §1
# [27] = target: Gal(b1-4)GlcNAc(b1-3)[Gal(b1-4)GlcNAc(b1-6)]GalNAc
# Summary of the method: as §1
# [28] = target: Gal(b1-4)GlcNAc(b1-3)[GlcNAc(b1-6)]Gal(b1-4)GlcNAc
# Summary of the method: as §1
# [29] = target: Gal(b1-4)GlcNAc(b1-6)Gal(b1-4)GlcNAc
# Summary of the method: as §1
# [30] = target: Gal(b1-4)GlcNAc(b1-6)GalNAc
# Summary of the method: as §1
# [31] = target: Gal(b1-4)GlcNAc(b1-6)[Gal(b1-3)]GalNAc
# Summary of the method: as §1
# [32] = target: Gal(b1-4)GlcNAc(b1-6)[Gal(b1-3)]GlcNAc
# Summary of the method: as §1
# [33] = target: Gal(b1-4)GlcNAc(b1-6)[Gal(b1-4)GlcNAc(b1-3)]GalNAc
# Summary of the method: as §1
# Gal(b1-4)GlcNAc6P = target: Gal(b1-4)GlcNAc6P
# Summary of the method: as §1
# Gal(b1-6)Gal = target: Gal(b1-6)Gal
# Summary of the method: as §1
# Gal3S(b1-3)GalNAc = target: Gal3S(b1-3)GalNAc
# Summary of the method: as §1
# Gal3S(b1-3)GlcNAc = target: Gal3S(b1-3)GlcNAc
# Summary of the method: as §1
# [34] = target: Gal3S(b1-3)[Fuc(a1-4)]GlcNAc
# Summary of the method: as §1
# Gal3S(b1-4)Glc = target: Gal3S(b1-4)Glc
# Summary of the method: as §1
# Gal3S(b1-4)Glc6S = target: Gal3S(b1-4)Glc6S
# Summary of the method: as §1
# Gal3S(b1-4)GlcNAc = target: Gal3S(b1-4)GlcNAc
# Summary of the method: as §1
# Gal3S(b1-4)GlcNAc6S = target: Gal3S(b1-4)GlcNAc6S
# Summary of the method: as §1
# [35] = target: Gal3S(b1-4)[Fuc(a1-3)]Glc6S
# Summary of the method: as §1
# [36] = target: Gal3S(b1-4)[Fuc(a1-3)]GlcNAc
# Summary of the method: as §1
# [37] = target: Gal3S(b1-4)[Fuc(a1-3)]GlcNAc6S
# Summary of the method: as §1
binder,measurement,setting,value
B1,glycan array binding signal (z-score),[1],-0.055
same,glycan array binding signal (z-score),[2],-0.077
same,glycan array binding signal (z-score),[3],-0.027
same,glycan array binding signal (z-score),[4],-0.142
same,glycan array binding signal (z-score),[5],0.016
same,glycan array binding signal (z-score),[6],-0.075
same,glycan array binding signal (z-score),[7],-0.104
same,glycan array binding signal (z-score),[8],-0.02
same,glycan array binding signal (z-score),[9],0.339
same,glycan array binding signal (z-score),[10],0.029
same,glycan array binding signal (z-score),[11],-0.014
same,glycan array binding signal (z-score),[12],0.01
same,glycan array binding signal (z-score),[13],-0.037
same,glycan array binding signal (z-score),[14],-0.037
same,glycan array binding signal (z-score),[15],-0.023
same,glycan array binding signal (z-score),[16],-0.028
same,glycan array binding signal (z-score),[17],-0.01
same,glycan array binding signal (z-score),[18],-0.013
same,glycan array binding signal (z-score),[19],-0.093
same,glycan array binding signal (z-score),[20],-0.114
same,glycan array binding signal (z-score),[21],-0.059
same,glycan array binding signal (z-score),[22],-0.04
same,glycan array binding signal (z-score),[23],-0.048
same,glycan array binding signal (z-score),[24],-0.096
same,glycan array binding signal (z-score),[25],-0.088
same,glycan array binding signal (z-score),[26],-0.078
same,glycan array binding signal (z-score),[27],0.686
same,glycan array binding signal (z-score),[28],-0.064
same,glycan array binding signal (z-score),[29],-0.118
same,glycan array binding signal (z-score),[30],-0.134
same,glycan array binding signal (z-score),[31],-0.171
same,glycan array binding signal (z-score),[32],-0.588
same,glycan array binding signal (z-score),[33],-0.094
same,glycan array binding signal (z-score),Gal(b1-4)GlcNAc6P,-0.062
same,glycan array binding signal (z-score),Gal(b1-6)Gal,-0.128
same,glycan array binding signal (z-score),Gal3S(b1-3)GalNAc,0.01
same,glycan array binding signal (z-score),Gal3S(b1-3)GlcNAc,-0.154
same,glycan array binding signal (z-score),[34],-0.035
same,glycan array binding signal (z-score),Gal3S(b1-4)Glc,0.199
same,glycan array binding signal (z-score),Gal3S(b1-4)Glc6S,0.138
same,glycan array binding signal (z-score),Gal3S(b1-4)GlcNAc,-0.068
same,glycan array binding signal (z-score),Gal3S(b1-4)GlcNAc6S,0.039
same,glycan array binding signal (z-score),[35],-0.062
same,glycan array binding signal (z-score),[36],0.033
same,glycan array binding signal (z-score),[37],-0.057
